Reference: the supplement of paper PMC3334620
Over roughly 33,000 sequences, “E-score (-0.5 to 0.5)” has its median near -0.016; the highest 2% begin near 0.32. The list shows a part of the results.

These sequences were tested against T1, Stp1 (UniProt B3LFK1) (assay: PBM E-score (8-mer binding enrichment) (E-score (-0.5 to 0.5)); higher = stronger / more preferred TF binding; most listed sequences are background and not binding sites). Details: protein concentration: 200 nM; construct: GST-full length.
T1 sequence: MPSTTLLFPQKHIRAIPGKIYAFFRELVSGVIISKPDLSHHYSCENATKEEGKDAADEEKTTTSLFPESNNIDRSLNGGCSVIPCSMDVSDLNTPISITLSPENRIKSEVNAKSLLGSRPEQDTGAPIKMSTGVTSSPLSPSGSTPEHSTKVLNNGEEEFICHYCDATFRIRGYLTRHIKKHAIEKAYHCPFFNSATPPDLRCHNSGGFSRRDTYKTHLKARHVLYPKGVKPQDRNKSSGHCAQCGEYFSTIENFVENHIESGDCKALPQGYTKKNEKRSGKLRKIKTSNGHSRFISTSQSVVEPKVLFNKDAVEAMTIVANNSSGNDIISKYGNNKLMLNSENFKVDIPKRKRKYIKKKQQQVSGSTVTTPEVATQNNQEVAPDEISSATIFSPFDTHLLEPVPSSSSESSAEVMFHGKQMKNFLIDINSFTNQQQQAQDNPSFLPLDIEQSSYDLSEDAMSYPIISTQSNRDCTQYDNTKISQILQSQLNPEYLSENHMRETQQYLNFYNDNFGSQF
Summary of the method: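 Using PURExpress in vitro transcription/translation, GST-tagged yeast transcription factors were made in full-length or DNA-binding-domain form. These were applied at about 100-200 nM to double-stranded universal all-10-mer Agilent arrays, and bound protein was detected with fluorescent anti-GST. Scans were normalised with masliner before the Universal PBM Analysis Suite assigned E-scores to ungapped eight-base words pooled with their reverse complements.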

In order of rising “PBM E-score” value:
1. CACACTGG  -0.394
2. GAAGAGGA  -0.286
3. AATGTCTC  -0.273
4. ACCGCTGG  -0.254
5. CTGGGCGA  -0.253
6. CGGGAGTC  -0.238
7. CTCGCTAC  -0.195
8. CGAGGACG  -0.181
9. TCGGAAGA  -0.178
10. ATTCTGAC  -0.172
11. ACTTCCAG  -0.163
12. CCAGCCGG  -0.156
13. CCCTCCCC  -0.146
14. CCACGCGA  -0.133
15. GAGCTAGC  -0.131
16. AGTGATAG  -0.125
17. CACCAACC  -0.125
18. AGGTAAGC  -0.118
19. ATCGACCG  -0.107
20. CTAGCTCC  -0.106
21. AGGTCCGA  -0.0987
22. CAATCAGA  -0.0823
23. CCACCCCG  -0.08
24. AAGATGAG  -0.0799
25. GATTCGAC  -0.0793
26. CAATGCGA  -0.0726
27. ATGGGGTA  -0.0634
28. AGAAGCGA  -0.0609
29. ACTCTTCT  -0.0477
30. ATGGATCC  -0.0375
31. CCAGAATC  -0.0343
32. AAGAGCAC  -0.0326
33. CGAGAAGA  -0.0301
34. CGCCCAAC  -0.0275
35. CATGGATA  -0.0216
36. CATCATTC  -0.0189
37. AATTGAAA  -0.00219
38. GCAGCCAA  0.00403
39. ATAACAGG  0.00569
40. GGGTTGTA  0.00753
41. ACAGTCAG  0.0149
42. GAGCCATA  0.0155
43. TCAGTGGA  0.0187
44. ATGTGAAG  0.0231
45. TCTCAACA  0.0271
46. CTCGGCTC  0.029
47. AACACTTA  0.0357
48. CACTGAGG  0.0366
49. TGTAGTAA  0.0399
50. TCAACCCA  0.0435
51. ATCGCGAA  0.0513
52. CCTCAAAC  0.0517
53. CGAGTTGC  0.0649
54. AATAACGT  0.0652
55. GTACCAAA  0.0684
56. ATGAGTGA  0.0723
57. CGTTAACA  0.0754
58. GCTCTAAC  0.076
59. GAACTCGC  0.0761
60. AGAACGTA  0.0863
61. ACTGTTAT  0.0873
62. ATCTGCAT  0.101
63. TCATTGCA  0.105
64. AAGTAACT  0.105
65. AATTAGCG  0.107
66. CGTATTTC  0.108
67. CCAAGGGG  0.113
68. ATTCTAAG  0.126
69. ACAAACGA  0.129
70. TCAAAAAA  0.131
71. AAACCATA  0.135
72. GATAATCA  0.138
73. GCGAAAAC  0.154
74. CATGGGGC  0.169
75. AGAGTAAT  0.17
76. GATAGTGA  0.171
77. AGTAGCCG  0.176
78. CAGAAGTA  0.181
79. ACAATTAA  0.19
80. CGAAATCA  0.202
81. TGCACGAA  0.209
82. AACAATGA  0.21
83. CGTGTCGC  0.223
84. GCCTCACA  0.263
85. CCCGCGCC  0.297
86. AAGGCGAT  0.329
